Experimental data published in PubChem BioAssay AID504832 (National Center for Advancing Translational Sciences (NCATS), 2011).
Where “and” joins values, the source holds several entries; their conditions need not be identical. Identical values can stand only once. Out of some 310,000 compounds screened, about 18,000 (5.8%) were called active. The inconclusive results got no clear call from the source; some entries with a clear call stand among them for comparison. The call rests on the fitted dose curve; in most records, active means well fitted inhibition curve with a large enough effect; inconclusive means small, poorly fitted or top-dose-only effect, or another doubt; inactive means no such curve, though single readings can be large or run the other way. No potency is given beside an inconclusive call; the fits are too rough.

assay: Primary qHTS for delayed death inhibitors of the malarial parasite plastid, 48 hour incubation; details: P. falciparum luciferase growth in erythrocytes; series mostly up to 28.7 µM; activity change, negative = inhibition: at the top concentration
In short: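 Firefly luciferase activity from engineered P. falciparum reports growth; inhibitors lower the luminescent signal. Cultures contained 2% hematocrit erythrocytes at 0.1% final parasitemia.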
On the % scale 0 is the no-effect control and ±100 the full control effect; potency means the concentration at half of the fitted maximal effect; tags describe the fitted curve by direction and shape.

| Compound | Potency | activity change, negative = inhibition |
| --- | --- | --- |
| COC(=O)C1=C(c2ccc(-c3ccccc3)c(F)c2)C[C@@H]2CC[C@H]1N2C(=O)NCCO | inconclusive [inhibitor, single point] | – |
| CCOc1ccc(C(=O)Nc2cccc3cccnc23)cc1 | – | inactive: 3.63% |
| CCCOc1ccc(C2C(C(=O)c3cc4ccccc4o3)=C(O)C(=O)N2c2cc(C)on2)cc1OC (stereo not drawn) | inconclusive [inhibitor, partial curve, poor fit] | – |
| COc1ccc(S(=O)(=O)NC2CC(C)(C)NC(C)(C)C2)c2ccccc12 | inconclusive [inhibitor, partial curve, poor fit] | – |
| COCCn1nc2cc(C(=O)NCC34CC5CC(CC(C5)C3)C4)ccc2c1OC | inconclusive [inhibitor, partial curve, poor fit] | – |
| COC(=O)[C@@]12CCCCN1[C@H](c1ccc(-c3ccc(C(C)=O)cc3)cc1)[C@H]1C(=O)N(C)C(=O)[C@H]12 | inconclusive [inhibitor, partial curve, poor fit] | – |
| O=C(Cc1cccc(C(F)(F)F)c1)Nc1cccc(S(=O)(=O)N2CCCC2)c1 | inconclusive [inhibitor, single point] | – |
| CN1CCc2c(sc3c2c(NCc2ccco2)nc2nnnn23)C1 | – | inactive: -0.28% |
| COc1ccc(S(=O)(=O)N(C(=O)c2ccco2)c2cc3sc(=O)oc3c3ccccc23)cc1 | inconclusive [inhibitor, partial curve, poor fit] | – |
| CCC(C)c1ccc(NC(=O)C2CC2)cc1 (stereo not drawn) | inconclusive [inhibitor, single point] | – |
| COc1ccc(NC(=O)Nc2cccc(C)n2)c(OC)c1 | – | inactive: 6.95% |
| Cc1[nH]c2ccccc2c1NC(=O)CN1CCN(C(=O)c2ccco2)CC1 | inconclusive [inhibitor, single point] | – |
| O=C(c1ccco1)N1CCCSC1=Nc1ccccc1 | inconclusive [inhibitor, partial curve, poor fit] | – |
| CCCCn1nc(C(=O)N2CCc3ccccc32)c2ccccc2c1=O | inconclusive [inhibitor, single point] | – |
| CN(C)c1nc2ccccc2c(N)c1-c1ccccc1 | inconclusive [inhibitor, partial curve] | – |
| Cc1[nH]c(-c2ccco2)nc1C(=O)O | – | inactive: 10.5% |
| COc1cc(CN2CCNC(=O)C2CC(=O)NCCC2=CCCCC2)cc(OC)c1 (stereo not drawn) | inconclusive [inhibitor, single point] | – |
| CC(C)CCNC(=O)NC(=O)COC(=O)CNC(=O)C1CCCCC1 | inconclusive [inhibitor, single point] | – |
| COc1ccc(CN(C)c2ncnc3sccc23)c(OC)c1OC | active: 13.1 µM | – |
| COCC1CCN(C(=O)C2CCN(c3nc(-c4ccccc4)nc4c3CCC4)CC2)C1 (stereo not drawn) | active: 7.38 µM | – |
| COc1ccc(C2=NN(C(=S)Nc3ccccc3)C(c3ccccc3)C2)cc1 (stereo not drawn) | active: 14.7 µM | – |
| COc1ccc(-c2nc(CSCC(=O)NCc3ccco3)c(C)o2)cc1 | inconclusive [inhibitor, partial curve, poor fit] | – |
| N#C/C(=C\c1ccc(OCc2ccc(C(=O)O)cc2)cc1)C(=O)N1CCOCC1 | – | inactive: 212% |

| Compound | Potency | activity change, negative = inhibition |
| --- | --- | --- |
| CCC(C)(C)C1CCC2(CC1)NC(=O)N(CC(=O)NCCc1ccc(OC)c(OC)c1)C2=O (stereo not drawn) | active: 11.7 µM | – |
| COc1cc(CNc2ccc3[nH]c(=O)[nH]c3c2)ccc1OCc1c(F)cccc1Cl | – | inactive: 12.5% |
| CCOc1ccccc1NC(=O)CSc1nnc(Cc2cccn2C)n1-c1ccc(F)cc1 | active: 5.86 µM | – |
| CCN(CC)S(=O)(=O)c1cc(C(=O)OCC(=O)Nc2c(F)cccc2F)ccc1F | – | inactive: 9.99% |
| CCOc1ccc(S(=O)(=O)Nc2ccccc2C(=O)N2CCCC2)cc1 | – | inactive: 6.83% |
| CCOc1cc(/C=C2\SC(=Nc3ccc(F)cc3)N(c3ccc(F)cc3)C2=O)ccc1OCC(=O)O | inconclusive [inhibitor, partial curve, poor fit] | – |
| O=c1cc(N2CCCCC2)c(-c2ccccc2)nn1Cc1ccc(Cl)cc1Cl | active: 2.08 µM | – |
| CCCc1nn(C)c(C(=O)Nc2cccc3ccccc23)c1Cl | – | inactive: 6.96% |
| CCOC(=O)c1c(NC(=O)C2c3ccccc3Oc3ccccc32)sc(C(C)=O)c1C | inconclusive [inhibitor, full curve] | – |
| CC(=O)c1cccc(S(=O)(=O)N2CCCC(c3nc4c(nnn4Cc4ccc(C)cc4)c(=O)[nH]3)C2)c1 (stereo not drawn) | inconclusive [inhibitor, partial curve] | – |
| CC[C@@]1(O)C(=O)OCc2c1cc1n(c2=O)Cc2cc3ccccc3nc2-1 | inconclusive [inhibitor, full curve] | – |
| COc1ccc(-c2sc(Nc3ccccc3)n[n+]2-c2ccc(F)cc2)c(C)c1C | inconclusive [inhibitor, single point] | – |
| Cc1ccc(C)c(S(=O)(=O)N2CCN(C(=O)Cc3c(F)cccc3Cl)CC2)c1 | inconclusive [inhibitor, single point] | – |
| COc1ccc(-n2nc(C(=O)NCC(=O)NCc3ccc(F)cc3)c3ccccc3c2=O)c(OC)c1 | – | inactive: 8.38% |
| Cc1ccc(CCNS(=O)(=O)c2cc3c(cc2Cl)NC(=O)CO3)cc1 | – | inactive: 20.2% |
| O=C(COC(=O)/C=C/c1ccccc1)NCCC1=CCCCC1 | – | inactive: 5.56% |
| CCOc1ccccc1N(CC(=O)NCCSc1ccccn1)S(=O)(=O)c1ccc(C)cc1 | inconclusive [inhibitor, single point] | – |
| CCOC(=O)C1=C(C)Nc2ccccc2N/C1=N\S(=O)(=O)c1ccccc1 | – | inactive: -8.2% |
| COc1cccc(-c2ccc3ncnc(NCc4cc(C)cs4)c3c2)c1 | active: 11.7 µM and active: 6.57 µM | – |
| CCn1ncc(Br)c1C(=O)Nc1ccc(-c2ccno2)cc1 | – | inactive: -9.83% |
| O=C(NCC1CCCO1)C(c1cccs1)N(Cc1cccs1)C(=O)c1ccc(-c2ccccc2)[nH]1 (stereo not drawn) | inconclusive [inhibitor, partial curve, poor fit] | – |
| N#Cc1ccccc1OCC(=O)OCCCOC(=O)COc1ccccc1C#N | – | inactive: -10.5% |
| CCCCCC(=O)N[C@@H](c1ccccc1)[C@@H](O)C(=O)O[C@H]1C[C@@]2(O)[C@@H](OC(=O)c3ccccc3)C3[C@](C)(C(=O)[C@H](OC(C)=O)C(=C1C)C2(C)C)[C@@H](O)C[C@H]1OC[C@@]31OC(C)=O (stereo partly drawn) | inconclusive [inhibitor, full curve, poor fit] | – |

| Compound | Potency | activity change, negative = inhibition |
| --- | --- | --- |
| CCc1c(C(=O)NCCc2ccc(OC)c(OC)c2)[nH]c(C)c1C(C)=O | – | inactive: -14.1% |
| CN(Cc1cccs1)C(=O)Cn1cnc2ccccc2c1=O | – | inactive: 274% |
| COC(=O)/C(C#N)=C/c1c(N2CCN(Cc3ccc4c(c3)OCO4)CC2)nc2c(C)cccn2c1=O | inconclusive [inhibitor, partial curve] | – |
| COc1ccc(NC(=S)N(CCCN2CCOCC2)C(C)c2cc3ccccc3o2)cc1 (stereo not drawn) | inconclusive [inhibitor, single point] | – |
| COc1ccc(Cn2nnnc2C(c2cccs2)N2CCSCC2)cc1 (stereo not drawn) | inconclusive [inhibitor, single point] | – |
| O=c1c2c3c(sc2nc(NCCO)n1CCc1ccccc1)CCCCC3 | inconclusive [inhibitor, single point] | – |
| CCOC(=O)c1ccc(COc2ccc(C(C)C)cc2)o1 | – | inactive: 215% |
| CC(=O)NC(c1ccco1)c1cc(Cl)c2ccc(N(C)C)nc2c1O (stereo not drawn) | inconclusive [inhibitor, single point] | – |
| COC(=O)/C(C#N)=C/c1c(N2CCN(c3ccccc3)CC2)nc2c(C)cccn2c1=O | active: 9.28 µM | – |
| Cc1ccc(S(=O)(=O)n2cnc3cc([N+](=O)[O-])ccc32)c(C)c1C | – | inactive: 34.1% |
| COc1ccc(S(=O)(=O)N2CCN=C2SCc2cccc(C)c2)cc1 | inconclusive [inhibitor, single point] | – |
| CCN(CC)S(=O)(=O)c1ccc(NCC2COc3ccccc3O2)c([N+](=O)[O-])c1 (stereo not drawn) | inconclusive [inhibitor, partial curve] | – |
| COc1ccc(/C=N\N=C(N)N)cc1 | inconclusive [inhibitor, partial curve, poor fit] | – |
| CCOC(=O)C1=C(CC)Nc2ccccc2N=C1NC(=O)c1ccc(OC)c(S(=O)(=O)N2CCCCC2C)c1 (stereo not drawn) | inconclusive [inhibitor, partial curve] | – |
| COc1ccccc1/C=C/[C@@H]1C[C@H]2CN(Cc3cccc(Cl)c3)C(=O)[C@]23CCCN13 | inconclusive [inhibitor, partial curve] | – |
| COCCCNC(=O)c1ccc(N2CCCC2)c(NS(=O)(=O)c2ccc(C)cc2)c1 | inconclusive [inhibitor, full curve] | – |
| O=C(c1ccc(Cl)cc1)C1CCCN(Cc2cccc3cnccc23)C1 (stereo not drawn) | inconclusive [inhibitor, full curve, poor fit] | – |
| CCOc1ccc(C(O)c2nccn2C)cc1 (stereo not drawn) | – | inactive: 54.2% |
| CCOC(=O)C1=C(C)Nc2ccccc2N=C1NC(=O)c1oc2ccccc2c1COC | inconclusive [inhibitor, single point] | – |
| COC(=O)c1sc(N)c(C(=O)OC)c1CSc1nnc(-c2ccccc2Cl)n1C | inconclusive [inhibitor, single point] | – |
| Cc1cc2ncc(-c3cccs3)nc2cc1C | – | inactive: 142% |
| COCCn1c(Cc2ccccc2)nnc1SCC(=O)Nc1cc(C)on1 | inconclusive [inhibitor, partial curve, poor fit] | – |
